The values below come from PubChem BioAssay AID1745853 (National Center for Advancing Translational Sciences (NCATS), 2022).

Experiment in all cases: Primary Screen for Target Class Profiling of Small Molecule Inhibitors of Methyltransferases
For assay [1], the target named is Glycine N-methyltransferase (Homo sapiens) (UniProt Q14749). Particulars: purified enzyme, MTase-Glo SAH luminescence; measured here: GNMT inhibition; at 40 µM; stronger effect = lower value. Summed up:
(§1)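 Each enzyme was reacted with SAM and its substrate, with compounds tested once at 40 uM; SAH formed was read by MTase-Glo luminescence.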

Assay [2] addresses Guanidinoacetate N-methyltransferase (Homo sapiens) (UniProt Q14353). To be noted: purified enzyme, MTase-Glo SAH luminescence; measured here: GAMT inhibition; at 40 µM; stronger effect = lower value. The method, boiled down: as §1
The target in assay [3] is Histamine N-methyltransferase (Homo sapiens) (UniProt P50135). To be noted: purified enzyme, MTase-Glo SAH luminescence; measured here: HNMT inhibition; at 40 µM; stronger effect = lower value. The method, boiled down:
as §1

Assay [4] has as its target Nicotinamide N-methyltransferase (Homo sapiens) (UniProt P40261). To be noted: purified enzyme, MTase-Glo SAH luminescence; measured here: NNMT inhibition; at 40 µM; stronger effect = lower value. Summed up: as §1
The target of assay [5] is Phenylethanolamine N-methyltransferase (Homo sapiens) (UniProt P11086). To be noted: purified enzyme, MTase-Glo SAH luminescence; measured here: PNMT inhibition; at 40 µM; stronger effect = lower value. The method, boiled down:
as §1

Structures are written as SMILES. The list shows a part of the results. These are further read-outs of the screen, such as a control signal, another cell line or another target. No call is given for them.
% is set by controls: 0 for no effect and ±100 for the full control effect.

Regarding `O=C(CCn1ccn2nc3c(c2c1=O)CCCC3)NCc1ccc(F)c(Cl)c1`, the activity change, negative = inhibition is -3.77% in assay [1]; 1.59% in assay [2]; 0.035% in assay [3]; -17.2% in assay [4]; 12.9% in assay [5].
For `CSc1ccc(-c2cccc(C(=O)NCC(=O)N3CCOCC3)c2)cc1`, in that order: -4.5%, 1.81%, -5.41%, -6.44% and 7.88%.
With `Cc1c(OCc2ccc(C(=O)O)o2)ccc2c(-c3ccccc3)cc(=O)oc12`, the activity change, negative = inhibition in assay [1] is -41.5%; in assay [2] it was -5.92%; in assay [3], -2.8%; in assay [4], -16.1%; in assay [5] it was -29.8%.
Taken in the same sequence, the figures for `C[C@@H]1CN(Cc2ncccn2)C[C@H]1c1nc2c(cnn2C2CCOCC2)c(=O)[nH]1` were -4.28%, -9.88%, -6.61%, -17.5% and -9.22%.
For `Cc1cc2c(cc1S(=O)(=O)Nc1cccc(C)c1C)n(C)c(=O)n2C`, in that order: -4.79%, 3.06%, -10.4%, -11.3% and -6.16%.
For `CC(C)CCNC(=O)C1(C)Cn2nc(C(=O)NCCc3ccco3)cc2C(=O)N1C` (stereo not given), in that order: 6.76%, 7.38%, 0.157%, 8.51% and 2.34%.
Turning to `Clc1ccc(Nc2nnc(Cc3ccncc3)c3ccccc23)cc1`, the activity change, negative = inhibition in assay [1] was -7.71%; in assay [2], -8.66%; in assay [3] it was -1.12%; in assay [4] it was -30.5%; in assay [5], -3.81%.
As for `CCc1ccc(N2C(=O)c3cc(-c4ccccc4)nn3CC2(C)C(=O)NCCCOC)cc1` (stereo not given), the activity change, negative = inhibition in assay [1] is 1.37%; in assay [2], 4.03%; in assay [3], -1.98%; in assay [4], 5.54%; in assay [5], -10.1%.
With `CC1(C)CCC2(C(=O)OC3OC(COC4OC(CO)C(O)C(O)C4O)C(O)C(O)C3O)CCC3(C)C(=CCC4C5(C)CCC(OC6OCC(O)C(O)C6O)C(C)(C)C5CCC43C)C2C1O` (stereo not given), the activity change, negative = inhibition in assay [1] was 0%; in assay [2] it was -11.2%; in assay [3] it was 0.005%; in assay [4], -21.6%; in assay [5] it was -0.357%.
For `Cc1cc(O)c2c(c1)C(=O)c1cc(O)cc(O)c1C2=O`, in that order: -61.7%, -21.1%, -41%, -29.3% and -26.2%.
For `O=C1NC(=O)/C(=C/c2cccc(C(F)(F)F)c2)S1`, in that order: -20.3%, 12.8%, 4.23%, -16.5% and 2.5%.
Taken in the same sequence, the figures for `Cc1cc(C)cc(N2C(=O)c3ccccc3CC2(C)C(=O)NCc2ccccc2)c1` (stereo not given) were -0.992%, 4.17%, -0.184%, -2.63% and -1.64%.
Regarding `CC1OC(OC2C(OC3C(O[C@H]4CC[C@@]5(C)C(CC[C@]6(C)C5C(=O)CC5=C7CC(C)(C)CC(O)[C@]7(C)CC[C@]56C)C4(C)C)OC(C(=O)O)C(O)C3O)OCC(O)C2O)C(O)C(O)C1O` (stereo not given in full), the activity change, negative = inhibition is -2.85% in assay [1]; 2.05% in assay [2]; 0.642% in assay [3]; -11.7% in assay [4]; 4.56% in assay [5].
Taken in the same sequence, the figures for `C=C(C=O)[C@]1(O)C[C@@]2(C)C(=CC1=O)C=C[C@H](OC(=O)/C=C/C=C/[C@H](C)CC)[C@@H]2C` were 0%, -14.9%, -1.52%, -24.3% and -1.89%.
For `CO[C@@H]1[C@H](O)CCC2(CO2)[C@H]1[C@@]1(C)O[C@@H]1CC=C(C)C` (stereo not given in full), in that order: 0%, 0.415%, -3.99%, -11.3% and -1.93%.
Regarding `CC(C)CNC(=O)c1ccc2c(=O)n(C(C)C)c3nn(CC(=O)Nc4ccc(C(C)C)cc4)c(=O)n3c2c1`, the activity change, negative = inhibition in assay [1] is 5.26%; in assay [2], 0%; in assay [3], 10.2%; in assay [4] it was -4.08%; in assay [5], 5.27%.
`Cc1ccc(C)c(Nc2nn3c(=O)c4ccc(C(=O)NCc5cccnc5)cc4nc3s2)c1`: the activity change, negative = inhibition in assay [1] stood at 3.54%; in assay [2] it was 0.288%; in assay [3], 6.7%; in assay [4], 9.62%; in assay [5], 5.42%.
Taken in the same sequence, the figures for `CCCCN1C(=O)c2cc(C(=O)Nc3cc(Cl)ccc3OC)nn2CC1(C)C(=O)NC1CCCC1` (stereo not given) were 3.46%, 0.876%, 0.335%, 1.68% and 3.04%.
For `CCCCN1C(=O)c2cc(C(=O)Nc3cccc(OC)c3)nn2CC1(C)C(=O)NC1CCCC1` (stereo not given), in that order: 7.39%, 0.733%, -6.73%, 3.51% and 5.13%.
Taken in the same sequence, the figures for `CCN1CCN(C2(C(=O)NCCC3CCCCO3)Cc3ccccc3C2)CC1` (stereo not given) were -2.4%, -6.82%, -1.56%, -10.8% and -10.7%.
As for `COC(=O)c1ccc2c(C(=Nc3ccc(N(C)C(=O)CN4CCN(C)CC4)cc3)c3ccccc3)c(O)[nH]c2c1`, the activity change, negative = inhibition in assay [1] is -0.388%; in assay [2], 12.8%; in assay [3] it was -2.95%; in assay [4], -38.3%; in assay [5], -7.46%.
For the compound `Cc1ccc([C@@H]2CN(c3cc(N4CCC(O)CC4)ncn3)C[C@H]2N(C)C)cc1`, the activity change, negative = inhibition in assay [1] was -1.13%; in assay [2], 2.05%; in assay [3] it was -59.8%; in assay [4] it was -4.04%; in assay [5], 0.17%.
Turning to `C/C=C(\C)C(=O)OC1CC2C(CC=C3CC(OC4CC(OC)C(OC5CC(OC)C(OC6CC(OC)C(OC7CC(OC)C(OC8CC(OC)C(OC9OC(CO)C(O)C(O)C9O)C(C)O8)C(C)O7)C(C)O6)C(C)O5)C(C)O4)CCC32C)C2(O)CCC(C(C)=O)C12C` (stereo not given), the activity change, negative = inhibition in assay [1] turned out to be 3.96%; in assay [2], 17.9%; in assay [3] it was 7.96%; in assay [4], 5.37%; in assay [5] it was 9.61%.
Taken in the same sequence, the figures for `COc1ccc(-c2nn3c(SCC(=O)Nc4cc(Cl)ccc4OC)nnc3[nH]c2=O)cc1` were -4.43%, 2.56%, -6.25%, -12.4% and -6.47%.
For `COCCN1CCCC1c1nc(C2CN(C(=O)c3ncccc3C)C2)no1` (stereo not given), in that order: -6.32%, -10.1%, -5.23%, -11.2% and -6.28%.
For `CCCN1C(=O)c2cc3occc3n2CC1(C)C(=O)NC1CCCCCC1` (stereo not given), in that order: -4.74%, 3.6%, 0.574%, 4.49% and -1.1%.
On to `CN1C(=O)Cc2cc(S(=O)(=O)NCCN3CCN(c4ccccc4F)CC3)ccc21`, for which the activity change, negative = inhibition in assay [1] is 4.49%; in assay [2] it was 0.222%; in assay [3] it was -1.86%; in assay [4] it was 6.03%; in assay [5] it was 1.01%.
For `O=C(CC1CCN(C(=O)C2CCCCC2)C1)NCc1ccccc1` (stereo not given), in that order: -3.6%, -4.16%, -1.61%, -12.6% and -6.61%.
For `CC(C)Cn1c(=O)c2cc(F)ccc2n2c(SCC(=O)NCc3ccccc3Cl)nnc12`, in that order: -2%, 4.21%, 3.94%, -10.5% and -2.51%.
